# Several values for one entry are separate records, joined by “and”; a condition that tells them apart may be missing. Equal entries are not always repeated. Among all 310,000 compounds or so, about 18,000 (5.8%) were called active. Inconclusive means that the source gave no clear call. Such entries were picked first, then a sample of the others. The call rests on the fitted dose curve; in most records, active means well fitted inhibition curve with a large enough effect; inconclusive means small, poorly fitted or top-dose-only effect, or another doubt; inactive means no such curve, though single readings can be large or run the other way. Potencies of inconclusive entries are doubtful fits and often do not repeat.
# Experiment: Primary qHTS for delayed death inhibitors of the malarial parasite plastid, 48 hour incubation
# Details: P. falciparum luciferase growth in erythrocytes; series mostly up to 28.7 µM
# Summary of the method: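 Read-out is firefly luciferase luminescence from an integrated reporter in P. falciparum, so falling signal marks reduced parasite growth. Infected erythrocytes were at 2% hematocrit and 0.1% parasitemia (final) in Albumax-supplemented RPMI 1640.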
# Potency means the concentration at half of the fitted maximal effect; tags describe the fitted curve by direction and shape.
row,Structure (SMILES),Potency
1,COc1ccc(-c2nn(-c3ccccc3)cc2C(=O)N2CCN(S(=O)(=O)c3ccccc3C#N)CC2)cc1,"inconclusive: 10.4 µM [inhibitor, single point]"
2,COc1ccc(CN2C3CCC2CC(NC(=O)c2cccc(F)c2)C3)cc1 (stereo not drawn),"inconclusive: 13.1 µM [inhibitor, single point]"
3,O=C(CNC(=O)c1ccc(Cl)cc1)NC1CCCCC1,inactive
4,Oc1ccc(O)c(Cc2nc3ccccc3s2)c1,"inconclusive: 4.65 µM [inhibitor, partial curve, poor fit]"
5,Cc1ccccc1N1CC(C(=O)Nc2nnc(SCc3cccnc3)s2)CC1=O (stereo not drawn),"inconclusive: 9.28 µM [inhibitor, single point]"
6,Cn1c(Cc2ccccc2)nnc1SCC(=O)NCCc1ccccc1,inactive
7,COc1cc(/C=C2\SC(=O)N(Cc3ccc(F)cc3)C2=O)cc([N+](=O)[O-])c1O,"inconclusive: 1.65 µM [inhibitor, full curve]"
8,CCc1nn(CCCN2CCN(c3cccc(Cl)c3)CC2)c(=O)n1CCOc1ccccc1,"inconclusive: 14.7 µM [inhibitor, single point]"
9,O=C(Nc1ccncc1)Nc1cc(Cl)ccc1Cl,"inconclusive: 11.7 µM [inhibitor, single point]"
10,Cc1csc(=Nc2ccc(S(=O)(=O)N3CCOCC3)cc2)n1Cc1ccco1,"inconclusive: 9.28 µM [inhibitor, partial curve]"
11,CCCC1=C(C(=O)OCC)C(c2cccs2)n2ncnc2N1 (stereo not drawn),"inconclusive: 0.208 µM [inhibitor, full curve]"
12,CN(C)S(=O)(=O)c1ccc(Cl)c(NC(=O)COC(=O)/C=C/c2ccco2)c1,inactive
13,C=CCc1c(C)c(C#N)c2nc3ccccc3n2c1NCCN(C)C,"inconclusive: 5.22 µM [inhibitor, partial curve]"
14,CC(C)(C)C(=O)N1CCN(c2c(Cl)cccc2[N+](=O)[O-])CC1,"inconclusive: 18.5 µM [inhibitor, single point]"
15,O=S(=O)(NCc1ccco1)N1CCCCCC1,inactive
16,COCCN=c1scc(-c2cc(OC)ccc2OC)n1/N=C/c1c[nH]c2ccccc12,"inconclusive: 18.5 µM [inhibitor, single point]"
17,COc1cccc(NC(=O)c2ccccc2-c2nc(-c3ccc(F)cc3)no2)c1,"inconclusive: 10.4 µM [inhibitor, single point]"
18,Cc1ccc2nc(-c3ccc(SCC(=O)N4CCc5ccccc54)nc3)[nH]c2c1,"inconclusive: 13.1 µM [inhibitor, single point]"
19,CCOC(=O)C1(CCOc2ccccc2)CCN(Cc2cccc3nonc23)CC1,"inconclusive: 10.4 µM [inhibitor, single point]"
20,CC1CCC(C(C)C)C(OC(=O)c2ccccc2N)C1 (stereo not drawn),inactive
21,COc1ccc(Cl)cc1NC(=O)c1[nH]c(C)c(C(C)=O)c1C,inactive
22,O=c1cc(CSc2nnc(NC3CCCCC3)s2)nc2sccn12,"inconclusive: 9.28 µM [inhibitor, partial curve, poor fit]"
23,C#CCOCCOCCOCCNc1nc(N2CCN(C(=O)Cn3cc(CCCCN)nn3)CC2)nc(N2CCN(C(=O)Cn3cc(CCCN=C(N)N)nn3)CC2)n1,"inconclusive: 8.28 µM [inhibitor, partial curve]"

row,Structure (SMILES),Potency
1,O=C(CN(c1cccc(Cl)c1)S(=O)(=O)c1ccc(Cl)cc1)NCc1ccccn1,"inconclusive: 10.4 µM [inhibitor, partial curve, poor fit]"
2,CC(C)(C)C(=O)Nc1ccc(N2CCCC2)cc1,"inconclusive: 0.0041 µM [inhibitor, full curve, poor fit]"
3,C#CC1(O)C=CC2C3CCC4=CC(=O)CCC4C3CCC21CC (stereo not drawn),"inconclusive: 15.1 µM [inhibitor, partial curve, poor fit] and inconclusive: 13.1 µM [inhibitor, single point]"
4,C/C(=N\NC(=O)c1cc(-c2cccnc2)nc2ccccc12)c1ccccc1O,active: 6.57 µM
5,O=C(O)CCn1cc(C2CC(c3ccccc3)=NN2c2ccccc2)c(-c2ccccc2)n1 (stereo not drawn),"inconclusive: 11.7 µM [inhibitor, single point]"
6,COCC(C)n1c(SCC(=O)Nc2ccc3c(c2)OCCO3)nc2ccccc2c1=O (stereo not drawn),"inconclusive: 18.5 µM [inhibitor, single point]"
7,C=CCOn1c(=O)c(=O)n(OCc2ccccc2)c2ccccc21,inactive
8,O=C(O)c1cc(-c2ccc3ccccc3n2)nc2ccccc12,inactive
9,CCCNCc1cc(OC)c(OCC(=O)NCCc2ccccc2)cc1Br,"inconclusive: 11.7 µM [inhibitor, single point]"
10,COCCN1C(=O)c2ccc(C(=O)NCc3ccco3)cc2C1=O,inactive
11,COCCCNC(=O)Cn1ccc(N)nc1=O,inactive
12,COc1ccc(CCN2C(=O)CC(C(C)c3ccccc3)C2=O)cc1OC (stereo not drawn),"inconclusive: 5.22 µM [inhibitor, partial curve]"
13,Cc1c(N(C)S(=O)(=O)c2cc(C(=O)Nc3ccccn3)ccc2Cl)c(=O)n(-c2ccccc2)n1C,"inconclusive: 18.5 µM [inhibitor, single point]"
14,Cn1cccc1/C=N/NC(=O)CNc1cccc2ccccc12,inactive
15,O=C(Nc1c2c(nn1-c1ccc(F)cc1)CS(=O)C2)c1ccc2c(c1)OCO2 (stereo not drawn),inactive
16,O=C(c1ccccc1)c1coc2ccc(O)c(CN3CCOCC3)c12,"inconclusive: 18.5 µM [inhibitor, single point]"
17,CN(c1ccccc1)S(=O)(=O)c1cccc(NC(=O)c2ccc(=O)[nH]c2)c1,"inconclusive: 18.5 µM [inhibitor, single point]"
18,COC(=O)CC/C(=N/Nc1ccc(Cl)c(Cl)c1)C(=O)OC,inactive
19,CCc1[nH]nc(C(=O)N2CCCC(N3CCN(c4ccccc4C)CC3)C2)c1C (stereo not drawn),"inconclusive: 0.522 µM [inhibitor, full curve, poor fit]"
20,Cc1ccc(CNC(=O)c2ccc(S(=O)(=O)N3CCCCC3)cc2)cc1,"inconclusive: 18.5 µM [inhibitor, single point]"
21,CCCCn1c(N)c(N(CCOC)C(=O)C2CCN(S(=O)(=O)c3ccc(C)cc3C)CC2)c(=O)[nH]c1=O,active: 13.1 µM
22,C#CCSc1nc(N)c2c(n1)OC(N)=C(C#N)C2c1cccnc1 (stereo not drawn),"inconclusive: 4.15 µM [inhibitor, full curve, poor fit]"
23,CSCCC(NC(=O)c1ccccc1)C(=O)N1CCN(C(c2ccccc2)c2ccccc2)CC1 (stereo not drawn),"inconclusive: 4.15 µM [inhibitor, partial curve]"

row,Structure (SMILES),Potency
1,CCCC(=O)Nc1cccc(-c2nc3cc(C)c(C)cc3o2)c1,inactive
2,Cc1cccc(N(CC(=O)NC2CCCC2)C(=O)CNC(=O)c2ccco2)c1C,inactive
3,Cc1ccc(S(=O)(=O)CCc2nc3ccccc3[nH]2)cc1C,"inconclusive: 18.5 µM [inhibitor, single point]"
4,CCN(CC)S(=O)(=O)c1ccc(N2CCOCC2)c(NC(=O)C(=O)c2c(-c3ccccc3)cc3ccccn23)c1,active: 6.57 µM
5,Cc1nnc(SCC(=O)NC2CCCc3c2cnn3-c2ccccc2F)o1 (stereo not drawn),inactive
6,Cc1ccc(OCCN2C(=O)C(=O)c3cc(C)ccc32)cc1,inactive
7,CCC1=C(OC(=O)N(CC)CC)N2C(=O)OC(=NCC(=O)OC)[C@]2(Cc2ccccc2)[C@H]2C1=CC[C@H]1C(=O)NC(=O)[C@H]12,"inconclusive: 14.7 µM [inhibitor, single point]"
8,Cc1cccc(N(C)C(=O)c2cnn(-c3ccccc3)c2C)c1,inactive
9,COC(=O)CC1=NN(c2ccc(OC)cc2)C(=O)/C1=C\c1ccc(Cl)cc1,"inconclusive: 18.5 µM [inhibitor, single point]"
10,CC(C)CN(C#N)c1nc(N2CCOCC2)nc(N2CCOCC2)n1,"inconclusive: 0.465 µM [inhibitor, full curve, poor fit]"
11,O=S(=O)(CC(CN1CCOCC1)N1CCOCC1)c1ccccc1 (stereo not drawn),inactive
12,CCOC(=O)CC(=O)CSc1ccc2nnc(-c3ccc(C)cc3)n2n1,"inconclusive: 18.5 µM [inhibitor, single point]"
13,CCOC(=O)C1CCN(c2c([N+](=O)[O-])c(C(Cl)Cl)nn2-c2ccccc2)CC1,"inconclusive: 18.5 µM [inhibitor, single point]"
14,COc1cc(-c2cc(C(=O)Nc3ccc(S(N)(=O)=O)cc3)c3ccccc3n2)cc(OC)c1OC,"inconclusive: 14.7 µM [inhibitor, single point]"
15,O=C1c2ccccc2NC(c2ccc(O)cc2)N1/N=C/c1ccc(O)cc1 (stereo not drawn),inactive
16,Cn1c(=O)[nH]c(=O)c2c1nc(N1CCCC1)n2CCCSc1nnnn1-c1ccccc1,"inconclusive: 16.5 µM [inhibitor, partial curve, poor fit]"
17,Cc1ccc2nc(Nc3nc(CSc4nc5ccccc5s4)cc(=O)[nH]3)nc(C)c2c1,inactive
18,CCOc1ncccc1C(=O)OCC(=O)c1ccc(C)c(C)c1,inactive
19,CC(=O)N1c2ccc(S(=O)(=O)NCC3CCC(C(=O)NC4CCC(C)CC4)CC3)cc2CC1C (stereo not drawn),active: 13.1 µM
20,CC(C)(C)NC(=O)CN(C(=O)CN1C(=O)C(=O)c2ccccc21)C(C)(C)C,inactive
21,Cn1c2ccccc2c(=O)c2cc(C#CC3=CCCCC3)ccc21,"inconclusive: 18.5 µM [inhibitor, single point]"
22,CCC(CC)C(=O)Nc1nnc(S(=O)(=O)N(CC)c2ccc(OC)cc2)s1,"inconclusive: 4.15 µM [inhibitor, single point]"
